# Source: the supplement of paper PMC8728848
# The other results are listed elsewhere or left out.
# Experiments:
# Assay in all cases: glycan array binding signal (z-score within array); higher = stronger binding
# Conditions in all cases: glycan notation: IUPAC condensed, linker removed
# Gal(b1-3)GlcNAc = molecular target: Gal(b1-3)GlcNAc
# Outline: (§1)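 Glycan array binding is given as a within-array Z-score, which can be read as non-binding when negative. The arrays, 3228 of them, came from the Consortium for Functional Glycomics database and were retained only where the protein sequence was available. Z-scores were averaged across arrays of the same protein sequence at different concentrations or buffers and across linkers.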
# [1] = molecular target: Gal(b1-3)GlcNAc(b1-3)Gal(b1-3)GlcNAc
# Outline: as §1
# [2] = molecular target: Gal(b1-3)GlcNAc(b1-3)Gal(b1-4)Glc
# Outline: as §1
# [3] = molecular target: Gal(b1-3)GlcNAc(b1-3)Gal(b1-4)GlcNAc
# Outline: as §1
# [4] = molecular target: Gal(b1-3)[Fuc(a1-4)]GlcNAc
# Outline: as §1
# [5] = molecular target: Gal(b1-3)[Fuc(a1-4)]GlcNAc(b1-3)Gal(b1-3)[Fuc(a1-4)]GlcNAc
# Outline: as §1
# [6] = molecular target: Gal(b1-3)[Fuc(a1-4)]GlcNAc(b1-3)Gal(b1-4)GlcNAc
# Outline: as §1
# [7] = molecular target: Gal(b1-3)[Fuc(a1-4)]GlcNAc(b1-3)Gal(b1-4)[Fuc(a1-3)]GlcNAc
# Outline: as §1
# [8] = molecular target: Gal(b1-3)[GlcNAc(b1-6)]GalNAc
# Outline: as §1
# [9] = molecular target: Gal(b1-3)[Neu5Ac(a2-6)]GalNAc
# Outline: as §1
# [10] = molecular target: Gal(b1-3)[Neu5Ac(a2-6)]GlcNAc(b1-6)Gal(b1-4)Glc
# Outline: as §1
# [11] = molecular target: Gal(b1-3)[Neu5Ac(b2-6)]GalNAc
# Outline: as §1
# [12] = molecular target: Gal(b1-4)GalNAc(a1-3)[Fuc(a1-2)]Gal(b1-4)GlcNAc
# Outline: as §1
# [13] = molecular target: Gal(b1-4)GalNAc(b1-3)[Fuc(a1-2)]Gal(b1-4)GlcNAc
# Outline: as §1
# Gal(b1-4)Glc = molecular target: Gal(b1-4)Glc
# Outline: as §1
# Gal(b1-4)Glc6S = molecular target: Gal(b1-4)Glc6S
# Outline: as §1
# Gal(b1-4)GlcNAc = molecular target: Gal(b1-4)GlcNAc
# Outline: as §1
# [14] = molecular target: Gal(b1-4)GlcNAc(a1-6)Gal(b1-4)GlcNAc
# Outline: as §1
# [15] = molecular target: Gal(b1-4)GlcNAc(b1-2)Man(a1-3)[Gal(b1-4)GlcNAc(b1-2)Man(a1-6)]Man(b1-4)GlcNAc(b1-4)GlcNAc
# Outline: as §1
# [16] = molecular target: Gal(b1-4)GlcNAc(b1-3)Gal(b1-3)GlcNAc
# Outline: as §1
# [17] = molecular target: Gal(b1-4)GlcNAc(b1-3)Gal(b1-4)Glc
# Outline: as §1
# [18] = molecular target: Gal(b1-4)GlcNAc(b1-3)Gal(b1-4)GlcNAc
# Outline: as §1
# [19] = molecular target: Gal(b1-4)GlcNAc(b1-3)Gal(b1-4)GlcNAc(b1-3)Gal(b1-4)GlcNAc
# Outline: as §1
# [20] = molecular target: Gal(b1-4)GlcNAc(b1-3)Gal(b1-4)[Fuc(a1-3)]GlcNAc(b1-3)Gal(b1-4)[Fuc(a1-3)]GlcNAc
# Outline: as §1
# [21] = molecular target: Gal(b1-4)GlcNAc(b1-3)GalNAc
# Outline: as §1
# [22] = molecular target: Gal(b1-4)GlcNAc(b1-3)[Gal(b1-4)GlcNAc(b1-6)]Gal(b1-4)GlcNAc
# Outline: as §1
# [23] = molecular target: Gal(b1-4)GlcNAc(b1-3)[GlcNAc(b1-6)]Gal(b1-4)GlcNAc
# Outline: as §1
# [24] = molecular target: Gal(b1-4)GlcNAc(b1-6)Gal(b1-4)GlcNAc
# Outline: as §1
# [25] = molecular target: Gal(b1-4)GlcNAc(b1-6)Gal(b1-4)GlcNAc(b1-6)GalNAc
# Outline: as §1
# [26] = molecular target: Gal(b1-4)GlcNAc(b1-6)GalNAc
# Outline: as §1
# [27] = molecular target: Gal(b1-4)GlcNAc(b1-6)[Gal(b1-3)]GalNAc
# Outline: as §1
# Gal3S(b1-3)GalNAc = molecular target: Gal3S(b1-3)GalNAc
# Outline: as §1
# Gal3S(b1-3)GlcNAc = molecular target: Gal3S(b1-3)GlcNAc
# Outline: as §1
# [28] = molecular target: Gal3S(b1-3)[Fuc(a1-4)]GlcNAc
# Outline: as §1
# Gal3S(b1-4)Glc = molecular target: Gal3S(b1-4)Glc
# Outline: as §1
# Gal3S(b1-4)Glc6S = molecular target: Gal3S(b1-4)Glc6S
# Outline: as §1
# Gal3S(b1-4)GlcNAc = molecular target: Gal3S(b1-4)GlcNAc
# Outline: as §1
# Gal3S(b1-4)GlcNAc6S = molecular target: Gal3S(b1-4)GlcNAc6S
# Outline: as §1
binder,measurement,setting,value
Mannose Binding Protein (Lactobacillus plantarum) (protein) AERSEAALTHVDKDNFLKYFSLNGSATYDAKTGIVTITPNQNNQVGNFSLTSKIDMNKSFTLTGQVNLGSNPNGADGIGFAFHSGNTTDVGNAGGNLGIGGLQDAIGFKLDTWFNSYQAPSSDKNGSEISSTNSNGFGWNGDSANAPYGTFVKTSNQEISTANGSKVQRWWAQDTGESQALSKADIDGNFHDFVVNYDGATRTLTVSYTQASGKVLTWKTTVASSYQAMAMVVSASTGAAKNLQQFKLTSFDFQEAATVNVKYVDTTGHQLAQG,glycan array binding signal (z-score),Gal(b1-3)GlcNAc,-0.617
same,glycan array binding signal (z-score),[1],-0.897
same,glycan array binding signal (z-score),[2],-0.68
same,glycan array binding signal (z-score),[3],-0.663
same,glycan array binding signal (z-score),[4],-0.474
same,glycan array binding signal (z-score),[5],0.66
same,glycan array binding signal (z-score),[6],-0.125
same,glycan array binding signal (z-score),[7],-0.125
same,glycan array binding signal (z-score),[8],-0.038
same,glycan array binding signal (z-score),[9],0.628
same,glycan array binding signal (z-score),[10],-0.187
same,glycan array binding signal (z-score),[11],0.317
same,glycan array binding signal (z-score),[12],-0.073
same,glycan array binding signal (z-score),[13],0.063
same,glycan array binding signal (z-score),Gal(b1-4)Glc,-0.319
same,glycan array binding signal (z-score),Gal(b1-4)Glc6S,1.19
same,glycan array binding signal (z-score),Gal(b1-4)GlcNAc,0.17
same,glycan array binding signal (z-score),[14],1.44
same,glycan array binding signal (z-score),[15],-0.037
same,glycan array binding signal (z-score),[16],-0.276
same,glycan array binding signal (z-score),[17],-0.478
same,glycan array binding signal (z-score),[18],-0.526
same,glycan array binding signal (z-score),[19],-0.752
same,glycan array binding signal (z-score),[20],-0.302
same,glycan array binding signal (z-score),[21],-0.347
same,glycan array binding signal (z-score),[22],0.406
same,glycan array binding signal (z-score),[23],-0.708
same,glycan array binding signal (z-score),[24],-0.654
same,glycan array binding signal (z-score),[25],-0.737
same,glycan array binding signal (z-score),[26],-0.505
same,glycan array binding signal (z-score),[27],-0.319
same,glycan array binding signal (z-score),Gal3S(b1-3)GalNAc,-0.041
same,glycan array binding signal (z-score),Gal3S(b1-3)GlcNAc,0.745
same,glycan array binding signal (z-score),[28],1.06
same,glycan array binding signal (z-score),Gal3S(b1-4)Glc,0.148
same,glycan array binding signal (z-score),Gal3S(b1-4)Glc6S,0.429
same,glycan array binding signal (z-score),Gal3S(b1-4)GlcNAc,0.304
same,glycan array binding signal (z-score),Gal3S(b1-4)GlcNAc6S,0.258
